From PMC7933334, “The methyltransferase SETD2 couples transcription and splicing by engaging mRNA processing factors through its SHI domain” (Nature Communications, 2021)
These are yes or no findings as the source states them, for the method shown. Binding seen in cells or lysates may run through a third protein. Some results given as binding are weak or reduced against the parent protein; the word gives no strength.

Key:
[1] = target: T1, Halo-SETD2 1404–2564 (SETD2C) (human) (UniProt Q9BYW2); test: co-IP; Halo affinity purification of a Halo-tagged bait expressed in 293T (Magne HaloTag beads, AcTEV elution); endogenous partner detected by western blot; lysate with or without RNase where stated
T1 sequence: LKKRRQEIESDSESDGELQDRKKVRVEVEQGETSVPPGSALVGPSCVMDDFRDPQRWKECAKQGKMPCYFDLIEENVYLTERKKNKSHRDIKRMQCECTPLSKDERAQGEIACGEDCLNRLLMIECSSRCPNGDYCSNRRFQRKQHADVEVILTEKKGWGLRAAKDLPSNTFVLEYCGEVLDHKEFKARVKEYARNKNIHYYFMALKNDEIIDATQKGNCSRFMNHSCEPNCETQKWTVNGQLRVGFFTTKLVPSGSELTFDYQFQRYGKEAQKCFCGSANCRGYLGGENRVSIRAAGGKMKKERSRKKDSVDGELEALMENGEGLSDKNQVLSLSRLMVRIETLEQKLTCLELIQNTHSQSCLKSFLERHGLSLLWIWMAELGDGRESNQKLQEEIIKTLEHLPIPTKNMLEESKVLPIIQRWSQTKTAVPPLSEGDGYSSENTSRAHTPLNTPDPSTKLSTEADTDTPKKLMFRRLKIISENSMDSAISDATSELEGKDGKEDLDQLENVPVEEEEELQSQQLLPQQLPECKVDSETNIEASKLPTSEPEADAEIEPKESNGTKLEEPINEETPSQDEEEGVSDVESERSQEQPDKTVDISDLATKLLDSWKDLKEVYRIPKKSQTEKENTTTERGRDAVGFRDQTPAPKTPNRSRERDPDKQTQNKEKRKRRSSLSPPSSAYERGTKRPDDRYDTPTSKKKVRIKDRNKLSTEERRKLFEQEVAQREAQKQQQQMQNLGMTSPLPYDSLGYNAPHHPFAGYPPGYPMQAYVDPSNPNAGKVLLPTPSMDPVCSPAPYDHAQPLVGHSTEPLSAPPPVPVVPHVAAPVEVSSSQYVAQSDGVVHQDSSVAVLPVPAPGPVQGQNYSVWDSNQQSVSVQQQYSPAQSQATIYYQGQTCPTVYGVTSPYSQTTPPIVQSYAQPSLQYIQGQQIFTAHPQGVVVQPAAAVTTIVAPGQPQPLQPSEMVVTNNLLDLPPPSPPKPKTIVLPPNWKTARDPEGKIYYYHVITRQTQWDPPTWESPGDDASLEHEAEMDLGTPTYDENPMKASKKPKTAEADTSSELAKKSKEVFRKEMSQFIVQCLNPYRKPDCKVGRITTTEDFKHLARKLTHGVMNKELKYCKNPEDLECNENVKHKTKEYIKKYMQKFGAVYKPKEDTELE

[2] = target: T2, Halo-SETD2CΔ2114–2263 (human) (UniProt Q9BYW2); test: as above
T2 sequence: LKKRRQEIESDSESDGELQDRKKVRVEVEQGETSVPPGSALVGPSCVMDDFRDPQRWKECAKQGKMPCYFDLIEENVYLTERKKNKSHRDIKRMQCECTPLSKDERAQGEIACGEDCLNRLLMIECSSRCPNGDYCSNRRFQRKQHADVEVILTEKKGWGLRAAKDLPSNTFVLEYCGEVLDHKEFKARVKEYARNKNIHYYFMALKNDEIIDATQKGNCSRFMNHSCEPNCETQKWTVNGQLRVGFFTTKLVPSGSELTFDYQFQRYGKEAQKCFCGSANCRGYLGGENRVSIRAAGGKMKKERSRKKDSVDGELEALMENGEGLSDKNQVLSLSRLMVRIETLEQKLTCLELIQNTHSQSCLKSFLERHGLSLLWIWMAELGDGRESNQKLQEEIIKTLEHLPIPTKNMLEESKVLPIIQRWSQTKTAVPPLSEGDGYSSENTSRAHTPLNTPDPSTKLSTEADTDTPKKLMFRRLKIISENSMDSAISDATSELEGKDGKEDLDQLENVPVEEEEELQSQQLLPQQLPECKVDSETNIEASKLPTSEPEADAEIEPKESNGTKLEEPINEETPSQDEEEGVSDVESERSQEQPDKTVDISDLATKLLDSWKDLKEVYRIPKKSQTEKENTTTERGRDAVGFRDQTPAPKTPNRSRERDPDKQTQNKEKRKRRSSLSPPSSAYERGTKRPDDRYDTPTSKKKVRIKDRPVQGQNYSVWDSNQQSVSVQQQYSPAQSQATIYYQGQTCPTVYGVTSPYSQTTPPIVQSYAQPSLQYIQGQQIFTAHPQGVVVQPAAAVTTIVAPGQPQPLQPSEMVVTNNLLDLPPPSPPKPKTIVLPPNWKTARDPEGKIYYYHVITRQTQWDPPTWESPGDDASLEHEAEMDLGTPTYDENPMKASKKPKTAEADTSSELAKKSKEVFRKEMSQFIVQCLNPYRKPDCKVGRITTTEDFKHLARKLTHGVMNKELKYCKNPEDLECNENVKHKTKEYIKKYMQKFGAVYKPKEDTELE

binding [1]: binds
binding [2]: no binding
B1: hnRNP L (endogenous) (protein, UniProt P14866 1-589)
chain: MSRRLLPRAEKRRRRLEQRQQPDEQRRRSGAMVKMAAAGGGGGGGRYYGGGSEGGRAPKRLKTDNAGDQHGGGGGGGGGAGAAGGGGGGENYDDPHKTPASPVVHIRGLIDGVVEADLVEALQEFGPISYVVVMPKKRQALVEFEDVLGACNAVNYAADNQIYIAGHPAFVNYSTSQKISRPGDSDDSRSVNSVLLFTILNPIYSITTDVLYTICNPCGPVQRIVIFRKNGVQAMVEFDSVQSAQRAKASLNGADIYSGCCTLKIEYAKPTRLNVFKNDQDTWDYTNPNLSGQGDPGSNPNKRQRQPPLLGDHPAEYGGPHGGYHSHYHDEGYGPPPPHYEGRRMGPPVGGHRRGPSRYGPQYGHPPPPPPPPEYGPHADSPVLMVYGLDQSKMNCDRVFNVFCLYGNVEKVKFMKSKPGAAMVEMADGYAVDRAITHLNNNFMFGQKLNVCVSKQPAIMPGQSYGLEDGSCSYKDFSESRNNRFSTPEQAAKNRIQHPSNVLHFFNAPLEVTEENFFEICDELGVKRPSSVKVFSGKSERSSSGLLEWESKSDALETLGFLNHYQMKNPNGPYPYTLKLCFSTAQHAS
